According to the supplement of paper PMC8728848:
Some of the results follow.

Assays:
Experiment in all cases: glycan array binding signal (z-score within array); higher = stronger binding
Details in all cases: glycan notation: IUPAC condensed, linker removed
[1] = molecular target: Gal(b1-3)GlcNAc(b1-2)Man(a1-3)[Gal(b1-3)GlcNAc(b1-2)Man(a1-6)]Man(b1-4)GlcNAc(b1-4)GlcNAc
Procedure, shortened: (§1)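 Glycan array data came from 3228 arrays in the Consortium for Functional Glycomics database, and only arrays with an available protein sequence were kept. Glycan names were put into IUPAC-condensed notation, and columns mapping to the same glycan were averaged. The binding signal is a within-array Z-score, averaged across arrays of one protein sequence run at different concentrations or buffers and across linkers. A negative Z-score can be read as non-binding.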

[2] = molecular target: Gal(b1-3)GlcNAc(b1-2)Man(a1-3)[Gal(b1-3)GlcNAc(b1-2)Man(a1-6)]Man(b1-4)GlcNAc(b1-4)[Fuc(a1-6)]GlcNAc
Procedure, shortened: as §1

[3] = molecular target: Gal(b1-3)GlcNAc(b1-2)Man(a1-3)[GlcNAc(b1-4)][Gal(b1-3)GlcNAc(b1-2)Man(a1-6)]Man(b1-4)GlcNAc(b1-4)GlcNAc
Procedure, shortened: as §1

[4] = molecular target: Gal(b1-3)GlcNAc(b1-2)[Gal(b1-3)GlcNAc(b1-6)]Man(a1-6)[Gal(b1-3)GlcNAc(b1-2)Man(a1-3)]Man(b1-4)GlcNAc(b1-4)GlcNAc
Procedure, shortened: as §1

[5] = molecular target: Gal(b1-3)GlcNAc(b1-3)Gal(b1-3)GlcNAc
Procedure, shortened: as §1

[6] = molecular target: Gal(b1-3)GlcNAc(b1-3)Gal(b1-4)Glc
Procedure, shortened: as §1

[7] = molecular target: Gal(b1-3)GlcNAc(b1-3)Gal(b1-4)GlcNAc
Procedure, shortened: as §1

[8] = molecular target: Gal(b1-3)GlcNAc(b1-3)Gal(b1-4)GlcNAc(b1-2)Man(a1-3)[Gal(b1-3)GlcNAc(b1-3)Gal(b1-4)GlcNAc(b1-2)Man(a1-6)]Man(b1-4)GlcNAc(b1-4)GlcNAc
Procedure, shortened: as §1

[9] = molecular target: Gal(b1-3)GlcNAc(b1-3)Gal(b1-4)GlcNAc(b1-2)[Gal(b1-3)GlcNAc(b1-3)Gal(b1-4)GlcNAc(b1-6)]Man(a1-6)[Gal(b1-3)GlcNAc(b1-3)Gal(b1-4)GlcNAc(b1-2)Man(a1-3)]Man(b1-4)GlcNAc(b1-4)[Fuc(a1-6)]GlcNAc
Procedure, shortened: as §1

[10] = molecular target: Gal(b1-3)GlcNAc(b1-3)Gal(b1-4)GlcNAc(b1-3)Gal(b1-4)GlcNAc(b1-2)[Gal(b1-3)GlcNAc(b1-3)Gal(b1-4)GlcNAc(b1-3)Gal(b1-4)GlcNAc(b1-6)]Man(a1-6)[Gal(b1-3)GlcNAc(b1-3)Gal(b1-4)GlcNAc(b1-3)Gal(b1-4)GlcNAc(b1-2)Man(a1-3)]Man(b1-4)GlcNAc(b1-4)[Fuc(a1-6)]GlcNAc
Procedure, shortened: as §1

[11] = molecular target: Gal(b1-3)GlcNAc(b1-3)Gal(b1-4)GlcNAc(b1-6)[Gal(b1-3)GlcNAc(b1-3)]Gal(b1-4)Glc
Procedure, shortened: as §1

[12] = molecular target: Gal(b1-3)GlcNAc(b1-3)Gal(b1-4)[Fuc(a1-3)]GlcNAc
Procedure, shortened: as §1

[13] = molecular target: Gal(b1-3)GlcNAc(b1-3)Gal(b1-4)[Fuc(a1-3)]GlcNAc(b1-6)[Gal(b1-3)GlcNAc(b1-3)]Gal(b1-4)Glc
Procedure, shortened: as §1

[14] = molecular target: Gal(b1-3)GlcNAc(b1-3)GalNAc
Procedure, shortened: as §1

[15] = molecular target: Gal(b1-3)GlcNAc(b1-6)Gal(b1-4)GlcNAc
Procedure, shortened: as §1

[16] = molecular target: Gal(b1-3)GlcNAc(b1-6)GalNAc
Procedure, shortened: as §1

[17] = molecular target: Gal(b1-3)GlcNAc(b1-6)[Gal(b1-3)]GalNAc
Procedure, shortened: as §1

[18] = molecular target: Gal(b1-3)GlcNAc6S
Procedure, shortened: as §1

[19] = molecular target: Gal(b1-3)[Fuc(a1-4)]GlcNAc
Procedure, shortened: as §1

[20] = molecular target: Gal(b1-3)[Fuc(a1-4)]GlcNAc(b1-2)Man
Procedure, shortened: as §1

[21] = molecular target: Gal(b1-3)[Fuc(a1-4)]GlcNAc(b1-2)Man(a1-3)[Gal(b1-3)[Fuc(a1-4)]GlcNAc(b1-2)Man(a1-6)]Man(b1-4)GlcNAc(b1-4)[Fuc(a1-6)]GlcNAc
Procedure, shortened: as §1

[22] = molecular target: Gal(b1-3)[Fuc(a1-4)]GlcNAc(b1-3)Gal(b1-3)[Fuc(a1-4)]GlcNAc
Procedure, shortened: as §1

[23] = molecular target: Gal(b1-3)[Fuc(a1-4)]GlcNAc(b1-3)Gal(b1-4)[Fuc(a1-3)]GlcNAc
Procedure, shortened: as §1

[24] = molecular target: Gal(b1-3)[Fuc(a1-4)]GlcNAc(b1-6)GalNAc
Procedure, shortened: as §1

[25] = molecular target: Gal(b1-3)[GlcNAc(b1-6)]GalNAc
Procedure, shortened: as §1

[26] = molecular target: Gal(b1-3)[Neu5Ac(a2-6)]GalNAc
Procedure, shortened: as §1

[27] = molecular target: Gal(b1-3)[Neu5Ac(a2-6)]GlcNAc(b1-4)Gal(b1-4)Glc
Procedure, shortened: as §1

[28] = molecular target: Gal(b1-3)[Neu5Ac(b2-6)]GalNAc
Procedure, shortened: as §1

[29] = molecular target: Gal(b1-4)Gal
Procedure, shortened: as §1

[30] = molecular target: Gal(b1-4)GalNAc(a1-3)[Fuc(a1-2)]Gal(b1-4)GlcNAc
Procedure, shortened: as §1

B1: CvGal2 (Crassostrea virginica) (protein)
chain: MGSSHHHHHHSSGLVPRGSHMRIREAGKRKDTTKVYQIPDGLFPGQQVMLRGRVPWGSKSFSINFSATPRMGEGDILFHLNPRPSEGVCIRNALLNGSWGAEEKWQPYFPFDDGRSFSVKIEVTNDAFRTFVNGRPFVDFLHRTDFRAGKYLTLREGAEYYDVIFQSKPNIPLTTAIHNGMRIGKTIRIRGMCTAQDGFAINFNDNRNNIYFHFNARPAQRTVVRNSYFGSWGNEETAISKEFPFYPFLYFYASFVCMEDKFAVYVNDEHFIDFAHRGNPNNISVLQIKGSVNVLDTECLEPMGEDAMTEVDSGLENGDLFVLNGLMTERGKTFAVNFLNGFTENDDIALHFNPRKSTGEVVLNSRYGGAWQSEEKVALPGVFWSNRPLQVKVETKRNKFKIYVNGVDLAKYKIRGNVEDVHAVQVKGDVFLLETLLLKRLMKPVWERLTGGIRPGTWVTLQGTPKKNWQQFVVNFALDDTLDGDIAFHFNVRRGARQVVRNHRQSGAWGREETVTPFFAFDSEATFEIVFFVKEEKFLIYFNGKLFFEFVHRVPVERITHIYMDGDCNFYEPEVVI
For B1, the “glycan array binding signal (z-score)” value [1] was 0.832, the “glycan array binding signal (z-score)” value [2] was -0.164 and the “glycan array binding signal (z-score)” value [3] was 0.451. The “glycan array binding signal (z-score)” value [4] was 1.74, the “glycan array binding signal (z-score)” value [5] was 0.769 and the “glycan array binding signal (z-score)” value [6] was 1.17. For the same binder, the “glycan array binding signal (z-score)” value [7] was 0.004, the “glycan array binding signal (z-score)” value [8] was 0.49 and the “glycan array binding signal (z-score)” value [9] was 1.48. The “glycan array binding signal (z-score)” value [10] was 2.77, the “glycan array binding signal (z-score)” value [11] was 4.4 and the “glycan array binding signal (z-score)” value [12] was 0.146. For the same binder, the “glycan array binding signal (z-score)” value [13] was 1.32, the “glycan array binding signal (z-score)” value [14] was -0.255 and the “glycan array binding signal (z-score)” value [15] was 0.145. The “glycan array binding signal (z-score)” value [16] was -0.127, the “glycan array binding signal (z-score)” value [17] was 0.576 and the “glycan array binding signal (z-score)” value [18] was 0.52. For the same binder, the “glycan array binding signal (z-score)” value [19] was -0.326, the “glycan array binding signal (z-score)” value [20] was -0.321 and the “glycan array binding signal (z-score)” value [21] was -0.33. The “glycan array binding signal (z-score)” value [22] was -0.33, the “glycan array binding signal (z-score)” value [23] was -0.334 and the “glycan array binding signal (z-score)” value [24] was -0.317. For the same binder, the “glycan array binding signal (z-score)” value [25] was -0.317, the “glycan array binding signal (z-score)” value [26] was -0.338 and the “glycan array binding signal (z-score)” value [27] was 0.337. For the same binder, the “glycan array binding signal (z-score)” value [28] was -0.33, the “glycan array binding signal (z-score)” value [29] was -0.34 and the “glycan array binding signal (z-score)” value [30] was 1.28.
